# Experimental data as given in PubChem BioAssay (Tox21).
# “And” between values parts separate entries of the source, which are not always exact repeats. Equal values may be shown once. Inconclusive results, whose numbers are uncertain, are shown with a selection of clear calls. For part of these data: A potency beside an inconclusive call is a rough fit, not a confirmed value. The source made the active and inactive calls. Unless noted, the call rests on the fitted dose curve; in most records, active means well fitted curve in the direction sought with a large enough effect in the repeat runs; inconclusive means weak or mixed curves; inactive means no such curve, though single readings can be large; an effect the other way counts as inactive or inconclusive.
# What was measured:
# [1] = qHTS assay to identify small molecule antagonists of the estrogen related receptor (ERR) signaling pathway (AID 1224819; further: nearly all actives have a fitted effect of over 50% in size; further: potency means the concentration at half of the fitted maximal effect)
# In short: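 Compounds dissolved in DMSO were pin-transferred onto ERR cells that had been plated 6 h earlier, and cells were then incubated 18 h at 37 C; signal was luciferase luminescence via One-Glo.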
# [2] = tested on: estrogen-related receptor alpha (ERRalpha) with PGC-1alpha coactivator, human; test: qHTS assay to identify small molecule antagonists of the estrogen related receptor signaling pathway with the pleiotropic PPARgamma coactivator (PGC) (AID 1224821; calls by dose curve; further: nearly all actives have a fitted effect of over 50% in size; further: potency means the concentration at half of the fitted maximal effect)
# In short: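 Screening used NTP's PGC/ERR cells, dosed via pin tool with compound in DMSO alongside positive and negative controls. After 18 h at 37 C, One-Glo reagent sat 30 min at room temperature before luminescence detection.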
# [3] = qHTS assay to identify small molecule antagonists of the estrogen related receptor signaling pathway with the pleiotropic PPARgamma coactivator (PGC) cell viability counter screen (AID 1224822)
# In short: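 Counter screen for cell viability: PGC/ERR cells, 6 h pre-incubation after plating, 17.5 h compound exposure at 37 C, fluorescence from CellTiter-Fluor after 30 min.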
# [4] = qHTS assay to identify small molecule agonists of the hypoxia (HIF-1) signaling pathway - cell viability counter screen (AID 1224844; calls by dose curve; further: nearly all actives have a fitted effect of over 50% in size; further: potency means the concentration at half of the fitted maximal effect)
# In short: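 HRE-bla ME-180; 0.5% dFBS; cpd 17 h, 37C, 5% CO2; CellTiter-Glo lum., 30 min RT, post-FRET read, same wells.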
# [5] = qHTS assay to identify small molecule antagonists of the estrogen related receptor (ERR) signaling pathway from Tox21 library - cell viability counter screen (AID 1224834); further: nearly all actives have a fitted effect of over 30% in size; further: potency means the concentration at half of the fitted maximal effect
# In short: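 Seeded ERR cells were rested 6 h at 37 C/5% CO2 before compounds, positive and negative controls or DMSO were added. Incubation continued for 17.5 h, and viability was then quantified by CellTiter-Fluor fluorescence.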
# [6] = target: Luciferin 4-monooxygenase (Photinus pyralis) (UniProt P08659); test: qHTS assay to identify small molecule inhibitors of firefly luciferase (AID 1224835); further: nearly all actives have a fitted effect of over 25% in size; further: potency means the concentration at half of the fitted maximal effect
# In short: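 Quantitative HTS format; KM concentrations of both substrates. Purified P. pyralis FLuc activity quantified from luminescence images.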
# [7] = target: Thyrotropin receptor (Homo sapiens) (UniProt P16473); test: qHTS assay to identify small molecule agonists of the thyroid stimulating hormone receptor (TSHR) signaling pathway (AID 1224843; calls by dose curve; further: potency means the concentration at half of the fitted maximal effect; nearly all actives have a fitted effect of over 45% in size); settings: TSHR-HEK293 cells, cAMP HTRF, agonist mode, 30 min; activation: at 92.4 µM (top of the series) unless noted
# In short: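 Using 15 concentrations per compound in triplicate, cAMP production was monitored in TSHR-HEK293 cells after 30 min compound incubation at RT; HTRF reagents followed, with fluorescence intensity recorded after 1 h.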
# [8] = qHTS assay to identify small molecule agonists of the retinoic acid receptor (RAR) signaling pathway (AID 1159553); settings: C3RL4 RARE luciferase reporter, agonist, 6 h; activation: at 73.3 µM (top of the series) unless noted; further: potency means the concentration at half of the fitted maximal effect
# In short: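 6 hr compound exposure (DMSO vehicle) of overnight-plated C3RL4 RARE-luc cells at 37 C; luminescence quantified after 30 min RT with luciferase reagent.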
# [9] = qHTS assay to identify small molecule agonists of the constitutive androstane receptor (CAR) signaling pathway - cell viability counter screen (AID 1224836); further: potency means the concentration at half of the fitted maximal effect; nearly all actives have a fitted effect of over 45% in size
# In short: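 Double-stable HepG2 hepatoma cells (hCAR plus CYP2B6-2.2kb) are treated for 23 h at 37 C with test compounds in 15-point concentration series. PK11195 at 0.75 uM final is co-added. Cell viability is quantified by CellTiter-Fluor.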
# [10] = qHTS assay to identify small molecule antagonists of the estrogen related receptor signaling pathway with the pleiotropic PPARgamma coactivator (PGC) from Tox21 10K library (AID 1224841; call rule not given here; further: potency means the concentration at half of the fitted maximal effect; actives are mostly falling curves and most rising ones were filed inactive; nearly all actives have a fitted effect of over 50% in size)
# In short: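 Test chemicals dissolved in DMSO were applied to pre-incubated (6 h) PGC/ERR cells at 2,000 cells/well for an 18 h, 37 C treatment; reporter luminescence was then read using One-Glo.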
# [11] = qHTS assay to identify small molecule antagonists of the constitutive androstane receptor (CAR) signaling pathway - cell viability counter screen (AID 1224837); further: potency means the concentration at half of the fitted maximal effect; nearly all actives have a fitted effect of over 45% in size
# In short: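 To flag cytotoxic false antagonists, HepG2 hCAR/CYP2B6-2.2kb cells were treated 23 hr with 15-concentration compound series and 50 nM CITCO at 37 C/5% CO2; CellTiter-Fluor fluorescence was the measured end point.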
# [12] = qHTS assay to identify small molecule antagonists of the estrogen related receptor signaling pathway with the pleiotropic PPARgamma coactivator (PGC) from Tox21 10K library - cell viability counter screen (AID 1224840; active means well fitted cell-killing curve with a large enough effect in the repeat runs, not every such curve was filed as active; inconclusive means weak or mixed curves, or effect the other way; inactive means no such curve, though single readings can be large or run the other way; further: potency means the concentration at half of the fitted maximal effect; nearly all actives have a fitted effect of over 40% in size)
# In short: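 Seeded PGC/ERR cells (2,000/well, 6 h, 37 C/5% CO2) get compound by pin tool; 17.5 h incubation at 37 C; CellTiter-Fluor added, 30 min, fluorescence measured.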
# [13] = target: Nuclear receptor subfamily 1 group I member 3 (Homo sapiens) (UniProt Q14994); test: qHTS assay to identify small molecule agonists of the constitutive androstane receptor (CAR) signaling pathway (AID 1224839); further: potency means the concentration at half of the fitted maximal effect; nearly all actives have a fitted effect of over 15% in size
# In short: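 Readout: firefly luciferase luminescence via ONE-Glo. System: HepG2 double-stable for hCAR and CYP2B6-2.2kb. Conditions: 15-point compound titration, PK11195 at 0.75 uM final, 24 h incubation.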
# [14] = target: Nuclear receptor subfamily 1 group I member 3 (Homo sapiens) (UniProt Q14994); test: qHTS assay to identify small molecule antagonists of the constitutive androstane receptor (CAR) signaling pathway (AID 1224838);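 further: HepG2 cells stably expressing hCAR with CYP2B6 luciferase reporter stimulated by CITCO; potency means the concentration at half of the fitted maximal effect; nearly all actives have a fitted effect of over 40% in size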
# In short: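 Human hepatoma HepG2 cells expressing hCAR and a CYP2B6 promoter (2.2 kb) luciferase construct; compound titration (15 points) with 50 nM CITCO final, 24 h at 37 C/5% CO2; luminescence via ONE-Glo after 30 min at room temperature.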
# Tags describe the fitted curve by direction and shape or compound fluorescence and quenching.
# UniProt Q14994, sequence (Q14994 whole entry, looked up): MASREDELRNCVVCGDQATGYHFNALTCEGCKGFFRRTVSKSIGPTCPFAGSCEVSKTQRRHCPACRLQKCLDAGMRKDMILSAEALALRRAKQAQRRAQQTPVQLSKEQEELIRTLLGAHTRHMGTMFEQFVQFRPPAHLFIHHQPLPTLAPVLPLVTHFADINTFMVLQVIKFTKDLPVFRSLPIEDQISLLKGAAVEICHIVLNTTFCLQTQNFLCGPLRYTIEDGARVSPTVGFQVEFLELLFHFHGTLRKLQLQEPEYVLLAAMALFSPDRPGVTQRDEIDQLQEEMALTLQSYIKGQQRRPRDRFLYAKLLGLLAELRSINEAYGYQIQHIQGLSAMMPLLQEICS
# UniProt P16473, sequence (P16473 whole entry, looked up): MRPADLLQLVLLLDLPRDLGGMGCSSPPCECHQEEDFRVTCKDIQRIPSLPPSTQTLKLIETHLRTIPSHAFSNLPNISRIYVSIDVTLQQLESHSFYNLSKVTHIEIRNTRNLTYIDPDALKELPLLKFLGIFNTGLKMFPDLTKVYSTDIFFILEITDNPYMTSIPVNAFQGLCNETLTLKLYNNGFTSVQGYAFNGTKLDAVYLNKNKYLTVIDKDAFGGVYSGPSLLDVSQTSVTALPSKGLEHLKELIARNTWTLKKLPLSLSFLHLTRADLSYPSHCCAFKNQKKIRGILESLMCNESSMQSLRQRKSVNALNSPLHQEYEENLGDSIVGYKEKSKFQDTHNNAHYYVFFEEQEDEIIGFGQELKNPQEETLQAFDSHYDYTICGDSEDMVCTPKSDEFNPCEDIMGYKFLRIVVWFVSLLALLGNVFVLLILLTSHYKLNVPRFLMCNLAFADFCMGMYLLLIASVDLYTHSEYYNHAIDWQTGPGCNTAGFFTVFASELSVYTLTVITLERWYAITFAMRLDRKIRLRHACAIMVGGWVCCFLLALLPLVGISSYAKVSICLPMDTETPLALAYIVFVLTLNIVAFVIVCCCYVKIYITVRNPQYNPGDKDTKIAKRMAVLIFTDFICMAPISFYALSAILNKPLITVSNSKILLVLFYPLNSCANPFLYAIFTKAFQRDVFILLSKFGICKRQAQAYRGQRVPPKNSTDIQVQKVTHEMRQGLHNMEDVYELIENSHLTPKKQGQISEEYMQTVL
# UniProt P08659, sequence (P08659 whole entry, looked up): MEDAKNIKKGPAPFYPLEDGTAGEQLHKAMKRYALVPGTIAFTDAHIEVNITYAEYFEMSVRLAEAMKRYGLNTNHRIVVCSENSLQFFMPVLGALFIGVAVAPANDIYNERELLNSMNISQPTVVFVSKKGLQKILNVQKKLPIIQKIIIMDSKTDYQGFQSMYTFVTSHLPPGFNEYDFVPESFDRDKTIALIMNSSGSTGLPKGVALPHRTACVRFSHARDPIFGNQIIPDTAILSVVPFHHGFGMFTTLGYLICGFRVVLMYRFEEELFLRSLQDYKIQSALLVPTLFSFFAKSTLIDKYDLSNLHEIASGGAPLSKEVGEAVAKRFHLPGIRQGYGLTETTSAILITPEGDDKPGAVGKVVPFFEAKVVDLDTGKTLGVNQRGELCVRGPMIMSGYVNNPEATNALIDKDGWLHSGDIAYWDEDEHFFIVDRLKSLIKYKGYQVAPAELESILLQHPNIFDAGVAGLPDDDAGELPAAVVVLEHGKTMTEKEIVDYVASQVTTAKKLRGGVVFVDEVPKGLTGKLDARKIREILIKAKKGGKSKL
smiles,measurement,setting,value
Cc1ccc(S(=O)(=O)NC(=O)NN2CCCCCC2)cc1,Potency,[1],inactive
same,Potency,[2],"inconclusive: 5.31 µM [inhibitor, single point]"
same,Potency,[3],inactive
same,Potency,[4],inactive
O=C(NO)c1ccccc1,Potency,[1],"inconclusive: 68.6 µM [inhibitor, single point]"
same,Potency,[2],inactive
same,Potency,[5],"inconclusive: 58.2 µM [cytotoxic, single point]"
same,Potency,[6],"inconclusive: 85.1 µM [inhibitor, single point]"
same,Potency,[7],"inconclusive: 58.2 µM [activator, partial curve, poor fit]"
same,Potency,[4],"inconclusive: 52.3 µM [cytotoxic, partial curve, poor fit]"
CC1=C(CC(=O)O)c2cc(F)ccc2/C1=C\c1ccc(S(C)=O)cc1 (stereo not drawn),Potency,[3],inactive
same,Potency,[7],"inconclusive: 61.1 µM [activator, partial curve]"
Cc1ccc(O)c2ncccc12,Potency,[8],"inconclusive: 1.68 µM [inhibitor, full curve]"
same,Potency,[9],"inconclusive: 23.7 µM [cytotoxic, partial curve]"
same,Potency,[10],"inconclusive: 33.5 µM [falling, single point]"
C[C@H]1O[C@@H](O[C@H]2CC[C@@]3(C)[C@H](CC[C@@H]4[C@@H]3C[C@@H](O)[C@]3(C)[C@@H](C5=CC(=O)OC5)CC[C@]43O)C2)C[C@H](O)[C@@H]1O[C@H]1C[C@H](O)[C@H](O[C@H]2C[C@H](O)[C@H](O[C@@H]3O[C@H](CO)[C@@H](O)[C@H](O)[C@H]3O)[C@@H](C)O2)[C@@H](C)O1,Potency,[9],"inconclusive: 0.75 µM [cytotoxic, full curve]"
same,Potency,[11],"inconclusive: 0.422 µM [cytotoxic, full curve]"
same,Potency,[12],"inconclusive: 0.266 µM [cytotoxic, full curve]"
same,Potency,[10],active: 0.335 µM
O=C(O)CS,Potency,[5],"inconclusive: 61.6 µM [cytotoxic, partial curve, poor fit]"
Cc1cc2nc3c(=O)[nH]c(=O)nc-3n(C[C@H](O)[C@H](O)[C@H](O)CO)c2cc1C,Potency,[5],"inconclusive: 30.3 µM [rising, partial curve] and inconclusive: 45.1 µM [rising, partial curve] and inconclusive: 14.6 µM [rising, partial curve]"
same,Potency,[9],"inconclusive: 53.9 µM [rising, partial curve] and inconclusive: 50.6 µM [rising, partial curve] and inconclusive: 13 µM [rising, partial curve]"
same,Potency,[11],"inconclusive: 53.9 µM [rising, partial curve] and inconclusive: 50.6 µM [rising, partial curve] and inconclusive: 13 µM [rising, partial curve]"
same,Potency,[13],"inconclusive: 60.5 µM [activator, partial curve, poor fit]"
same,Potency,[7],"inconclusive: 60.5 µM [falling, partial curve, poor fit]"
Cc1c(C)n(Cc2ccccc2)c2ccc(C(=O)OCCN(C)C)cc12,Potency,[5],inconclusive: 33.5 µM [cytotoxic]
same,Potency,[9],inconclusive: 29.8 µM [cytotoxic]
same,Potency,[11],inconclusive: 33.5 µM [cytotoxic]
same,Potency,[13],active: 11.9 µM
COc1ccc(OC(=O)N(CC(=O)O)Cc2ccc(OCCc3nc(-c4ccccc4)oc3C)cc2)cc1,Potency,[5],inactive
same,Potency,[4],"inconclusive: 23.9 µM [cytotoxic, single point]"
COc1cc(-c2nc(NC(=O)c3cc4cc(C)cc(C)c4n3CC(=O)O)sc2CCC2CCCCC2)c(OC)cc1Cl,Potency,[5],active: 49.9 µM
same,Potency,[9],inconclusive: 62.9 µM [cytotoxic]
same,Potency,[11],"inconclusive: 62.9 µM [cytotoxic, partial curve, poor fit]"
same,Potency,[14],"inconclusive: 49.9 µM [inhibitor, single point]"
same,Potency,[12],active: 39.7 µM
same,Potency,[10],"inconclusive: 22.3 µM [falling, single point]"
same,Potency,[4],active: 25.2 µM
COc1cc(Cc2cnc(N)nc2N)cc(OC)c1OC,Potency,[6],inactive
CC(=O)O[C@]1(C(C)=O)CC[C@H]2[C@@H]3C[C@H](C)C4=CC(=O)CC[C@]4(C)[C@H]3CC[C@@]21C,Potency,[5],active: 61.1 µM and inconclusive: 33.5 µM [cytotoxic]
same,Potency,[9],inconclusive: 68.5 µM [cytotoxic]
same,Potency,[11],"inconclusive: 68.5 µM [cytotoxic, partial curve, poor fit]"
same,Potency,[12],"inconclusive: 54.4 µM [cytotoxic, partial curve]"
CCOc1nc2cccc(C(=O)OC(C)OC(=O)OC3CCCCC3)c2n1Cc1ccc(-c2ccccc2-c2nn[nH]n2)cc1 (stereo not drawn),Potency,[6],active: 56.4 µM
same,Potency,[12],active: 43.2 µM
CCCCC(CC)COC(=O)c1ccc(O)cc1 (stereo not drawn),Potency,[5],"inconclusive: 68.6 µM [cytotoxic, single point]"
same,Potency,[12],"inconclusive: 77 µM [cytotoxic, partial curve, poor fit]"
same,Potency,[4],inconclusive: 54.7 µM [cytotoxic]
